Assay results reported in PMC10250389.
No constants are given. Whether binding was seen depends on the method and setting. For some assays here: Binding seen in cells or lysates may run through a third protein. Some binding calls cover weakened binding; strength is not graded here. For some assays here: Sequences can lack the tags named with a protein. One block for each molecule: values may come before it.

Amino acid sequences for entries named in this document (tags omitted). A change or cut given only in a name is not applied to a line headed by its entry.
UniProt P01024: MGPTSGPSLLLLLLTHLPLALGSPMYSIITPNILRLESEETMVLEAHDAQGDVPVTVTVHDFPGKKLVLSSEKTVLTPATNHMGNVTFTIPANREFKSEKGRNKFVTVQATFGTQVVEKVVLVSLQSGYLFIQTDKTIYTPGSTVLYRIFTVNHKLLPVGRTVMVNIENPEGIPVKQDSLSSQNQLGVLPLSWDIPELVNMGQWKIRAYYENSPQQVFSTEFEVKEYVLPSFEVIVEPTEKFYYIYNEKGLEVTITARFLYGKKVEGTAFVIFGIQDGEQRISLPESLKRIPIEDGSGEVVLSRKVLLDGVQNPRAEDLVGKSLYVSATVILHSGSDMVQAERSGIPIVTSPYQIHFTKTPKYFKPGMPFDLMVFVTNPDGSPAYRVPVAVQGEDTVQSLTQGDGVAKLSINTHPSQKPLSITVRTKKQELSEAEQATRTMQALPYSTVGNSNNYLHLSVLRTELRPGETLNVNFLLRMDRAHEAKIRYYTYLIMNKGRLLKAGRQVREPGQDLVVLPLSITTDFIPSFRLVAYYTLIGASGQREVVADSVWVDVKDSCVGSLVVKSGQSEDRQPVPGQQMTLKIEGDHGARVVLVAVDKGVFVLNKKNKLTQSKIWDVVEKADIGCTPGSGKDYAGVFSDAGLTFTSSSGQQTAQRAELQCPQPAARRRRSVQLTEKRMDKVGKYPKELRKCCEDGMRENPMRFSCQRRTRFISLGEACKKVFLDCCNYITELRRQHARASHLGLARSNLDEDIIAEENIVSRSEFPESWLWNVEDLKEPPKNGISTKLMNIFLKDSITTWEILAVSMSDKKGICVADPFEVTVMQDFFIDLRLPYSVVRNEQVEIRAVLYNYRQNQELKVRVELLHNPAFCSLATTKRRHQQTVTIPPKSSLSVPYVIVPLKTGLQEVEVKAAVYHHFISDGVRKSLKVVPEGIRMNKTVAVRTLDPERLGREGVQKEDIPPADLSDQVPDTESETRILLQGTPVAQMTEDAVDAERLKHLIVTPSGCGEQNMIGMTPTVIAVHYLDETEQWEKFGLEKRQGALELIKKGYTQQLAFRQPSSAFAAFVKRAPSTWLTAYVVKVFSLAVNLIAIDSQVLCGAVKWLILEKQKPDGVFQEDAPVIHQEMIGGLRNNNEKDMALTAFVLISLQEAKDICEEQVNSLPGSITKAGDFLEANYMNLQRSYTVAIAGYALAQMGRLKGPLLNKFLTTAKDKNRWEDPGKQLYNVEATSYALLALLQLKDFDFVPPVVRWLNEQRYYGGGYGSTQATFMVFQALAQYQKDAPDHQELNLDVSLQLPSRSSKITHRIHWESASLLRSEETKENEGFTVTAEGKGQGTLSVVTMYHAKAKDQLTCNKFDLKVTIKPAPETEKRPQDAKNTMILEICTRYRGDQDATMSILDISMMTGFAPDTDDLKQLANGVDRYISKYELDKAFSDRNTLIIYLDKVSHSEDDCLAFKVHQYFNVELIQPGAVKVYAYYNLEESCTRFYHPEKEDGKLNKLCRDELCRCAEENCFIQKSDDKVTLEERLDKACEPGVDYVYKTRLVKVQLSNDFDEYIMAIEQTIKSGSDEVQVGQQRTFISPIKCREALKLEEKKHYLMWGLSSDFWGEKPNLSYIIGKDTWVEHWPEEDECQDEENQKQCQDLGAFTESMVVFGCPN
UniProt Q09028: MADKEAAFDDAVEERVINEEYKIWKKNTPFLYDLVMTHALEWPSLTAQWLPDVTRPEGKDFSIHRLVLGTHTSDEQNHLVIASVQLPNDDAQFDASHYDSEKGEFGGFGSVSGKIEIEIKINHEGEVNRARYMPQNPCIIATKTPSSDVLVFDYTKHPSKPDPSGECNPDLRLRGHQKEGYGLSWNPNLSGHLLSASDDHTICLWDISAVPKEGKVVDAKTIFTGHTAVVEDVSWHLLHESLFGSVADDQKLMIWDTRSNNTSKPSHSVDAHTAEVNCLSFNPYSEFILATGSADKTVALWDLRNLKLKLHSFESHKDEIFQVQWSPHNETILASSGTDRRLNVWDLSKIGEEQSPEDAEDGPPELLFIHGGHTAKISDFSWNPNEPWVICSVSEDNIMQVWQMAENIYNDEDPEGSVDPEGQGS
UniProt Q16576: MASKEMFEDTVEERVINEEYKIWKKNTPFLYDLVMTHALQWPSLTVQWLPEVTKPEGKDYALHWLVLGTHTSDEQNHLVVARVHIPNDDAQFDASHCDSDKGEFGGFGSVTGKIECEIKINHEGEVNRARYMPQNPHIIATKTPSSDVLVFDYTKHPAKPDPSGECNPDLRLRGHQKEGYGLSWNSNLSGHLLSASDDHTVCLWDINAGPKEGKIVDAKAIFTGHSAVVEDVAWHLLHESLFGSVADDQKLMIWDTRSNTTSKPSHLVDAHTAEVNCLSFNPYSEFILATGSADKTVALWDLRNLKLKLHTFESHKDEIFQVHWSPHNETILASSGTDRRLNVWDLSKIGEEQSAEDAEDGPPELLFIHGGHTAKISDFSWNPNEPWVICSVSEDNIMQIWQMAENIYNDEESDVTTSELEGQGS
UniProt Q13547: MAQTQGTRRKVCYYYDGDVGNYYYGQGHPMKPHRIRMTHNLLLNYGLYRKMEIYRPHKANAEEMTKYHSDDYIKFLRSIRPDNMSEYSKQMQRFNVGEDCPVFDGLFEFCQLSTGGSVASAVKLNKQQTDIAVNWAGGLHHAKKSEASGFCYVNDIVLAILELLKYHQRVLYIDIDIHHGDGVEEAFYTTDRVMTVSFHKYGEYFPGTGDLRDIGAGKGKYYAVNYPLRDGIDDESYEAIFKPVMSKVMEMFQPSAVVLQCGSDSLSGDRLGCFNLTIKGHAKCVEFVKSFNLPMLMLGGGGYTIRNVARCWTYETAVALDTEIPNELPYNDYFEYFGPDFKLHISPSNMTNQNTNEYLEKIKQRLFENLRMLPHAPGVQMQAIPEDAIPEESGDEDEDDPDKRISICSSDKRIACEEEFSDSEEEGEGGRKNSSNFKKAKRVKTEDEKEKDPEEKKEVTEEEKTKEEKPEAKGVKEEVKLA
UniProt Q92769: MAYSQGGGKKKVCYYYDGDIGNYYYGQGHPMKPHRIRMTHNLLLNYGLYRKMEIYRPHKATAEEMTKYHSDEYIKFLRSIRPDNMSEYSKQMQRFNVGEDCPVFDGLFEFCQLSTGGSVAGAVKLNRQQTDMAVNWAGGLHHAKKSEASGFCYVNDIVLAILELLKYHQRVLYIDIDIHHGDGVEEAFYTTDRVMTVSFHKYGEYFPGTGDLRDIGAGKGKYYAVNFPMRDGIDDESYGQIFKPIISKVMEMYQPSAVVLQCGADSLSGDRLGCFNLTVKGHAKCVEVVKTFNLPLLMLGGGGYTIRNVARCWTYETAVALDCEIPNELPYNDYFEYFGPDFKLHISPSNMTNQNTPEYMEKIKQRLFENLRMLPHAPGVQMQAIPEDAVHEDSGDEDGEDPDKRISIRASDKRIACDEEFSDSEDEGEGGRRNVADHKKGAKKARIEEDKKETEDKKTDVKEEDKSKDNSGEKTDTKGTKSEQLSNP
UniProt Q14839: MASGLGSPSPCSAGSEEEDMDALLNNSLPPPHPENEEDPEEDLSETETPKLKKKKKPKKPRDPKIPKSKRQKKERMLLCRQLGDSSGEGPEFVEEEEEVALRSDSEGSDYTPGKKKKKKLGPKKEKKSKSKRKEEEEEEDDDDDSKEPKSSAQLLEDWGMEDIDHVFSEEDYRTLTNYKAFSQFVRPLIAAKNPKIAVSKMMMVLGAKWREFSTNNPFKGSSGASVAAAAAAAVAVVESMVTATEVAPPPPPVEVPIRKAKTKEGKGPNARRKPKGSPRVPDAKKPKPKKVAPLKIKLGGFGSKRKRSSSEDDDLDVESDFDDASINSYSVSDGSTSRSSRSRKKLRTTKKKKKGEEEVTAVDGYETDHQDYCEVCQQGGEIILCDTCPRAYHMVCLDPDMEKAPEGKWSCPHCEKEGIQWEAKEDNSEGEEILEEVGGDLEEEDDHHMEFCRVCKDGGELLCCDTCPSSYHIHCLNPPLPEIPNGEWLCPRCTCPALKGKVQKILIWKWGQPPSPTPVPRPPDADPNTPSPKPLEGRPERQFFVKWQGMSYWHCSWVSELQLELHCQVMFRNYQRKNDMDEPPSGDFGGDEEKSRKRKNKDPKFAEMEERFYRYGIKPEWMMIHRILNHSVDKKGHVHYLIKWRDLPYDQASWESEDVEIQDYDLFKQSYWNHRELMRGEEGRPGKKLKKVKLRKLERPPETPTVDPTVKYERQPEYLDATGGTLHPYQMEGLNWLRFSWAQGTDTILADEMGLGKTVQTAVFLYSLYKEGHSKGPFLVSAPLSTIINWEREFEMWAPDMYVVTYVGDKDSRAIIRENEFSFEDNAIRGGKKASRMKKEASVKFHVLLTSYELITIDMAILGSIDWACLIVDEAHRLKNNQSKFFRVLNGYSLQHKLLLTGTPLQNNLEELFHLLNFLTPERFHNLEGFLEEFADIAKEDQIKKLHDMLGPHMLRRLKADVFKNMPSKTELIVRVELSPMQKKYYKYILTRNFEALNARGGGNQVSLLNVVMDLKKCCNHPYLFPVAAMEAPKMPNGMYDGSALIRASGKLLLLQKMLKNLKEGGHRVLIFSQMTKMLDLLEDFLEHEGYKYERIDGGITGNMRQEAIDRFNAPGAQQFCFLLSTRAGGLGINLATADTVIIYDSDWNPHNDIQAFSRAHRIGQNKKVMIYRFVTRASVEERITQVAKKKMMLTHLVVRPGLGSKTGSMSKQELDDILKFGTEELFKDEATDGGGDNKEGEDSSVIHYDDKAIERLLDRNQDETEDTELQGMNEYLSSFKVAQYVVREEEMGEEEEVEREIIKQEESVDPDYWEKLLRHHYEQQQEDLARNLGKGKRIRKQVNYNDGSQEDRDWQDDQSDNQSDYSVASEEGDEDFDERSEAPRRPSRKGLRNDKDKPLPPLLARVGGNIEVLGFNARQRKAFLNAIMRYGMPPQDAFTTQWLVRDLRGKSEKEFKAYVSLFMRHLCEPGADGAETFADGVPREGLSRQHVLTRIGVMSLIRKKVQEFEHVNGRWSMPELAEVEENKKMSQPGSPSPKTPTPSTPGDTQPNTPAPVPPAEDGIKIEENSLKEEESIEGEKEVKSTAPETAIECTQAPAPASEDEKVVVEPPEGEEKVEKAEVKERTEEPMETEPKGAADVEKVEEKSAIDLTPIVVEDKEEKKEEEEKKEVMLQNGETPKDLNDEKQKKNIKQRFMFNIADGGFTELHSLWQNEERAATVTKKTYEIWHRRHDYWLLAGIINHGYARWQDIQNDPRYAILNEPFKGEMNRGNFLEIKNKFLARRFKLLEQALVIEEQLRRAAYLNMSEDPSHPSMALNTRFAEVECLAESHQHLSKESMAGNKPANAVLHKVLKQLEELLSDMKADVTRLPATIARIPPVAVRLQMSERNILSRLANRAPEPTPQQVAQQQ
UniProt Q15022: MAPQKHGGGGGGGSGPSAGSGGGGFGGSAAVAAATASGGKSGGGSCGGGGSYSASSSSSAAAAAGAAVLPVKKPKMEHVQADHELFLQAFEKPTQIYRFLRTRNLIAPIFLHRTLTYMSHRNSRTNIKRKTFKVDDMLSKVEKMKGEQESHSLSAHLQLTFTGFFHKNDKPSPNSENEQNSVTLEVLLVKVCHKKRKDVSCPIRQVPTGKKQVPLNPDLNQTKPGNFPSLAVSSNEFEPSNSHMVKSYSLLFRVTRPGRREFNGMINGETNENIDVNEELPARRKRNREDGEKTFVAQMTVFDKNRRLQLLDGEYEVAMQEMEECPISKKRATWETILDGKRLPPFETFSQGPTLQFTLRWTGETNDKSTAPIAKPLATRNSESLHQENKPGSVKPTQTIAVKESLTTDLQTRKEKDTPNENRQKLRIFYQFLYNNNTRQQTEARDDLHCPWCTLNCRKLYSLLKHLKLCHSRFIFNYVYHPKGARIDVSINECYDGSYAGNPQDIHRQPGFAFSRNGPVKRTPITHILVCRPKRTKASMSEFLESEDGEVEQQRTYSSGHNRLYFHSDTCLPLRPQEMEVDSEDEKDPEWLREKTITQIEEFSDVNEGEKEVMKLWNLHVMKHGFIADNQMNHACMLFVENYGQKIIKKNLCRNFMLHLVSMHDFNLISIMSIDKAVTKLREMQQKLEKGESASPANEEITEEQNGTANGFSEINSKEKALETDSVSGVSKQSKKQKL

Key:
[1] = biological target: complement C3b, the activated fragment of complement component 3 (nuclear C3b of A549-PTX cells) (human (endogenous in A549)) (UniProt P01024); test: co-IP; endogenous proteins of A549-PTX cells; IP with anti-C3/C3b antibody (Fig. 4C, F) or anti-RBBP4/7 antibodies (Fig. 4D), immunoblotting with the indicated antibodies
[2] = biological target: RBBP4 (human (endogenous in A549)) (UniProt Q09028); test: as above
[3] = biological target: RBBP7 (human (endogenous in A549)) (UniProt Q16576); test: as above
[4] = biological target: complement C3b, the activated fragment of complement component 3 (nuclear C3b of A549-PTX cells) (human (endogenous in A549)) (UniProt P01024); test: SEC; nuclear proteins extracted from A549-PTX cells fractionated by size exclusion gel chromatography; fractions immunoblotted
[5] = biological target: His-Sumo-RBBP7 (UniProt Q16576); test: pull-down; purified GST-RBBP4 or His-Sumo-RBBP7 incubated with glutathione agarose resin 3 h at 4 °C, then purified C3b 4 h at 4 °C; washed with PBST (0.02% Tween-20 in PBS); immunoblot; both purified
[6] = biological target: purified GST-RBBP4 (UniProt Q09028); test: as above
[7] = biological target: GST-tagged HDAC1 (UniProt Q13547); test: pull-down; supernatant of E. coli Rosetta (DE3) expressing the GST-tagged protein incubated with glutathione agarose resin 3 h at 4 °C, then purified C3b 4 h at 4 °C; washed with PBST (0.02% Tween-20 in PBS); immunoblot; only the binder purified
[8] = biological target: GST-tagged HDAC2 (UniProt Q92769); test: as above
[9] = biological target: T1, GST-tagged ING2 (UniProt Q9H160); test: as above
T1 sequence: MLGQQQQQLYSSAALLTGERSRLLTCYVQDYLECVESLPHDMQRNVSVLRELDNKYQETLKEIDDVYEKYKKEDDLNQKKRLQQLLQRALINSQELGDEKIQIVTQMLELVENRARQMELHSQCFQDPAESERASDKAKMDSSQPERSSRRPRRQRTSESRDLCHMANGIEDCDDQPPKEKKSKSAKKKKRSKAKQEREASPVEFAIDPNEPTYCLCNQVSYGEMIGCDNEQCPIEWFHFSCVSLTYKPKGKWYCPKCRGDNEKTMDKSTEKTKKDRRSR

[10] = biological target: T2, GST-tagged SAP18 (UniProt O00422); test: as above
T2 sequence: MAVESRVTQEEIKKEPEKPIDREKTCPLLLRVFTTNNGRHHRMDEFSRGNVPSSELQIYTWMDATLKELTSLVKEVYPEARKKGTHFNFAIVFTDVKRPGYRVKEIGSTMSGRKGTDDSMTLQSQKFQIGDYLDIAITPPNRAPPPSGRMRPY

[11] = biological target: complement C3b, the activated fragment of complement component 3 (nuclear C3b of A549-PTX cells) (human (endogenous in A549)) (UniProt P01024); test: co-IP; endogenous proteins of A549-PTX cells; IP with anti-C3/C3b antibody (Fig. 4C, F) or anti-RBBP4/7 antibodies (Fig. 4D), immunoblotting with the indicated antibodies; remark: listed apart in the source

binding [1]: no binding
Molecule: CHD4 (from UniProt Q14839 1-1912)

binding [2]: binds | binding [3]: binds
Molecule: complement C3b, the activated fragment of complement component 3 (nuclear C3b of A549-PTX cells) (from UniProt P01024 23-667; P01024 749-1663)

binding [1]: no binding
Molecule: SUZ12 (from UniProt Q15022 1-739)

binding [4]: binds | binding [1]: binds
Molecule: HDAC2 (from UniProt Q92769 1-488)

binding [5]: binds | binding [6]: binds | binding [7]: binds | binding [8]: binds | binding [9]: binds | binding [10]: binds
Molecule: purified complement component 3b (from UniProt P01024 23-667; P01024 749-1663)

binding [4]: binds | binding [1]: binds
Molecule: RBBP4 (from UniProt Q09028 1-425)

binding [4]: binds | binding [1]: binds
Molecule: HDAC1 (from UniProt Q13547 1-482)

binding [4]: binds | binding [11]: binds
B1: ING2 (protein, UniProt Q9H160 1-280)
chain: T1 sequence

binding [4]: binds | binding [11]: binds
B2: SAP18 (protein, UniProt O00422 1-153)
chain: T2 sequence

binding [11]: binds
B3: SDS (subunit of the SIN3A complex) (protein, UniProt Q9H7L9 1-328)
chain: MSAAGLLAPAPAQAGAPPAPEYYPEEDEELESAEDDERSCRGRESDEDTEDASETDLAKHDEEDYVEMKEQMYQDKLASLKRQLQQLQEGTLQEYQKRMKKLDQQYKERIRNAELFLQLETEQVERNYIKEKKAAVKEFEDKKVELKENLIAELEEKKKMIENEKLTMELTGDSMEVKPIMTRKLRRRPNDPVPIPDKRRKPAPAQLNYLLTDEQIMEDLRTLNKLKSPKRPASPSSPEHLPATPAESPAQRFEARIEDGKLYYDKRWYHKSQAIYLESKDNQKLSCVISSVGANEIWVRKTSDSTKMRIYLGQLQRGLFVIRRRSAA

binding [4]: binds | binding [11]: binds
B4: SAP30 (protein, UniProt O75446 1-220)
chain: MNGFTPDEMSRGGDAAAAVAAVVAAAAAAASAGNGTGAGTGAEVPGAGAVSAAGPPGAAGPGPGQLCCLREDGERCGRAAGNASFSKRIQKSISQKKVKIELDKSARHLYICDYHKNLIQSVRNRRKRKGSDDDGGDSPVQDIDTPEVDLYQLQVNTLRRYKRHFKLPTRPGLNKAQLVEIVGCHFRSIPVNEKDTLTYFIYSVKNDKNKSDLKVDSGVH
